The labels stand for the following.
B1: TEV protease; numbered along this chain (parent)
chain: MGESLFKGPRDYNPISSSICHLTNESDGHTTSLYGIGFGPFIITNKHLFRRNNGTLVVQSLHGVFKVKDTTTLQQHLVDGRDMIIIRMPKDFPPFPQKLKFREPQREERICLVTTNFQTKSMSSMVSDTSCTFPSGDGIFWKHWIQTKDGQCGSPLVSTRDGFIVGIHSASNFTNTNNYFTSVPKNFMELLTNQEAQQWVSGWRLNADSVLWGGHKVFMVKPEEPFQPVKEATQL

The assay covers variants of B1. The experiment in a line: raw area under fraction-flipped curve 0-4 h after induction (AUC4h, not background-subtracted), DNA-recorder readout of cleavage of the substrate (dimensionless); higher = more cleavage of the substrate by the protease variant. To be noted: temperature: 34 °C; time window: 0-4 h after rhamnose induction. The protocol:
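In vivo DNA recorder in E. coli TOP10(DE3) ΔrhaA at 34 °C. Each TEVp single-site mutant (parent TEVp 0) is paired with a single-site variant of the 7-mer TEVs (canonical ENLYFQ|S). The substrate sits between flexible linkers in a Bxb1-sfGFP-TEVs-SsrA fusion, so cleavage stabilises Bxb1 and speeds flipping of a recombination array, read by NGS. The value is the raw area under the fraction-flipped curve over 0-4 h after rhamnose induction (AUC4h), with ≥20 reads per time point. It is not background-subtracted; inactive controls average about 0.047.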

9 variants from the supplement of paper PMC12217912 can be followed below.

The other results are listed elsewhere or left out. Sequences were assembled here from the parent chain. Values near 0.05 are background.
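Note: Bxb1 expression induced with 0.2% (w/v) L-rhamnose at OD600 near 0.5, cultures sampled hourly, flipped fraction per protease–substrate barcode pair counted by paired-end Illumina sequencing.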

Take MGESLFKGPRDYNPISSSICHLTNESDGHTTSLYGIGWGPFIITNKHLFRRNNGTLVVQSLHGVFKVKDTTTLQQHLVDGRDMIIIRMPKDFPPFPQKLKFREPQREERICLVTTNFQTKSMSSMVSDTSCTFPSGDGIFWKHWIQTKDGQCGSPLVSTRDGFIVGIHSASNFTNTNNYFTSVPKNFMELLTNQEAQQWVSGWRLNADSVLWGGHKVFMVKPEEPFQPVKEATQL [F38W]: the “area with substrate ENLYFQA” value amounted to 0.0799, the “area with substrate ENLYFQC” value was determined as 0.108, the “area with substrate ENLYFQD” value amounted to 0.0693 and the “area with substrate ENLYFQE” value is 0.0629. In addition, the “area with substrate ENLYFQG” value amounted to 0.101, the “area with substrate ENLYFQH” value was 0.096, the “area with substrate ENLYFQI” value amounted to 0.0636 and the “area with substrate ENLYFQK” value amounted to 0.0557. In addition, the “area with substrate ENLYFQL” value is 0.0616, the “area with substrate ENLYFQM” value came to 0.0891, the “area with substrate ENLYFQN” value was 0.0801 and the “area with substrate ENLYFQP” value amounted to 0.0752. The “area with substrate ENLYFQR” value came out at 0.0584, the “area with substrate ENLYFQS” value was determined as 0.112, the “area with substrate ENLYFQT” value is 0.0686 and the “area with substrate ENLYFQV” value was determined as 0.0531. Besides, the “area with substrate ENLYFQW” value stood at 0.0544 and the “area with substrate ENLYFQY” value was 0.0866.
With MGESLFKGPRDYNPISSSICHLTNESDGHTTSLYGIGYGPFIITNKHLFRRNNGTLVVQSLHGVFKVKDTTTLQQHLVDGRDMIIIRMPKDFPPFPQKLKFREPQREERICLVTTNFQTKSMSSMVSDTSCTFPSGDGIFWKHWIQTKDGQCGSPLVSTRDGFIVGIHSASNFTNTNNYFTSVPKNFMELLTNQEAQQWVSGWRLNADSVLWGGHKVFMVKPEEPFQPVKEATQL [F38Y], the “area with substrate ENLYFQA” value stood at 0.101, the “area with substrate ENLYFQF” value worked out at 0.0651, the “area with substrate ENLYFQG” value amounted to 0.0947 and the “area with substrate ENLYFQI” value amounted to 0.0593. The “area with substrate ENLYFQL” value came out at 0.0599, the “area with substrate ENLYFQM” value turned out to be 0.0688, the “area with substrate ENLYFQN” value worked out at 0.087 and the “area with substrate ENLYFQQ” value came to 0.0799. In addition, the “area with substrate ENLYFQR” value turned out to be 0.0546, the “area with substrate ENLYFQS” value stood at 0.103, the “area with substrate ENLYFQT” value came out at 0.0708 and the “area with substrate ENLYFQV” value was 0.0516. Besides, the “area with substrate ENLYFQY” value amounted to 0.0839.
With MGESLFKGPRDYNPISSSICHLTNESDGHTTSLYGITFGPFIITNKHLFRRNNGTLVVQSLHGVFKVKDTTTLQQHLVDGRDMIIIRMPKDFPPFPQKLKFREPQREERICLVTTNFQTKSMSSMVSDTSCTFPSGDGIFWKHWIQTKDGQCGSPLVSTRDGFIVGIHSASNFTNTNNYFTSVPKNFMELLTNQEAQQWVSGWRLNADSVLWGGHKVFMVKPEEPFQPVKEATQL [G37T], the “area with substrate ENLYFQA” value was found to be 0.0763, the “area with substrate ENLYFQC” value was 0.0919, the “area with substrate ENLYFQF” value worked out at 0.0605 and the “area with substrate ENLYFQG” value was 0.0631. The “area with substrate ENLYFQH” value was determined as 0.0535, the “area with substrate ENLYFQK” value came to 0.0448, the “area with substrate ENLYFQM” value amounted to 0.0743 and the “area with substrate ENLYFQN” value came out at 0.055. Moreover, the “area with substrate ENLYFQQ” value was 0.0328, the “area with substrate ENLYFQR” value stood at 0.0406, the “area with substrate ENLYFQS” value amounted to 0.082 and the “area with substrate ENLYFQT” value is 0.0408. The “area with substrate ENLYFQV” value came to 0.0455, the “area with substrate ENLYFQW” value was found to be 0.0543 and the “area with substrate ENLYFQY” value worked out at 0.0763.
On to MGESLFKGPRDYNPISSSICHLTNESDGHTTSLYGIIFGPFIITNKHLFRRNNGTLVVQSLHGVFKVKDTTTLQQHLVDGRDMIIIRMPKDFPPFPQKLKFREPQREERICLVTTNFQTKSMSSMVSDTSCTFPSGDGIFWKHWIQTKDGQCGSPLVSTRDGFIVGIHSASNFTNTNNYFTSVPKNFMELLTNQEAQQWVSGWRLNADSVLWGGHKVFMVKPEEPFQPVKEATQL [G37I], for which the “area with substrate ENLYFQA” value was 0.0767, the “area with substrate ENLYFQC” value came to 0.0799, the “area with substrate ENLYFQE” value was found to be 0.07 and the “area with substrate ENLYFQF” value was found to be 0.0912. Besides, the “area with substrate ENLYFQG” value was determined as 0.0786, the “area with substrate ENLYFQK” value came to 0.0633, the “area with substrate ENLYFQM” value is 0.069 and the “area with substrate ENLYFQN” value was found to be 0.0565. Moreover, the “area with substrate ENLYFQR” value worked out at 0.0609, the “area with substrate ENLYFQS” value was found to be 0.0802, the “area with substrate ENLYFQV” value came to 0.0481 and the “area with substrate ENLYFQW” value came out at 0.0531. In addition, the “area with substrate ENLYFQY” value is 0.072.
For the variant MGESLFKGPRDYNPISSSICHLTNESDGHTTSLYGIWFGPFIITNKHLFRRNNGTLVVQSLHGVFKVKDTTTLQQHLVDGRDMIIIRMPKDFPPFPQKLKFREPQREERICLVTTNFQTKSMSSMVSDTSCTFPSGDGIFWKHWIQTKDGQCGSPLVSTRDGFIVGIHSASNFTNTNNYFTSVPKNFMELLTNQEAQQWVSGWRLNADSVLWGGHKVFMVKPEEPFQPVKEATQL [G37W], the “area with substrate ENLYFQA” value is 0.0681, the “area with substrate ENLYFQC” value is 0.0838, the “area with substrate ENLYFQD” value was 0.0507 and the “area with substrate ENLYFQE” value amounted to 0.047. Further, the “area with substrate ENLYFQF” value was found to be 0.0711, the “area with substrate ENLYFQG” value worked out at 0.131, the “area with substrate ENLYFQI” value worked out at 0.0543 and the “area with substrate ENLYFQK” value amounted to 0.0409. Also, the “area with substrate ENLYFQL” value stood at 0.0435, the “area with substrate ENLYFQM” value is 0.0694, the “area with substrate ENLYFQN” value was 0.0626 and the “area with substrate ENLYFQP” value came to 0.0458. The “area with substrate ENLYFQQ” value worked out at 0.0568, the “area with substrate ENLYFQR” value was found to be 0.0516, the “area with substrate ENLYFQS” value was 0.0789 and the “area with substrate ENLYFQT” value was 0.0595. For the same variant, the “area with substrate ENLYFQW” value stood at 0.061 and the “area with substrate ENLYFQY” value amounted to 0.0562.
Consider MGESLFKGPRDYNPISSSICHLTNESDGHTTSLYGYGFGPFIITNKHLFRRNNGTLVVQSLHGVFKVKDTTTLQQHLVDGRDMIIIRMPKDFPPFPQKLKFREPQREERICLVTTNFQTKSMSSMVSDTSCTFPSGDGIFWKHWIQTKDGQCGSPLVSTRDGFIVGIHSASNFTNTNNYFTSVPKNFMELLTNQEAQQWVSGWRLNADSVLWGGHKVFMVKPEEPFQPVKEATQL [I36Y], for which the “area with substrate ENLYFQA” value worked out at 0.0398, the “area with substrate ENLYFQC” value was determined as 0.0757, the “area with substrate ENLYFQG” value is 0.053 and the “area with substrate ENLYFQH” value turned out to be 0.0521. In addition, the “area with substrate ENLYFQI” value is 0.0589, the “area with substrate ENLYFQK” value stood at 0.0482, the “area with substrate ENLYFQN” value came to 0.0421 and the “area with substrate ENLYFQR” value is 0.0473. The “area with substrate ENLYFQS” value was 0.0524, the “area with substrate ENLYFQT” value is 0.0523, the “area with substrate ENLYFQV” value was 0.0539 and the “area with substrate ENLYFQW” value was 0.0462.
With MGESLFKGPRDYNPISSSICHLTNESDGHTTSLYGWGFGPFIITNKHLFRRNNGTLVVQSLHGVFKVKDTTTLQQHLVDGRDMIIIRMPKDFPPFPQKLKFREPQREERICLVTTNFQTKSMSSMVSDTSCTFPSGDGIFWKHWIQTKDGQCGSPLVSTRDGFIVGIHSASNFTNTNNYFTSVPKNFMELLTNQEAQQWVSGWRLNADSVLWGGHKVFMVKPEEPFQPVKEATQL [I36W], the “area with substrate ENLYFQA” value worked out at 0.0535, the “area with substrate ENLYFQD” value came to 0.0995, the “area with substrate ENLYFQF” value is 0.0445 and the “area with substrate ENLYFQG” value was 0.0621. The “area with substrate ENLYFQH” value came to 0.0526, the “area with substrate ENLYFQK” value was 0.0432, the “area with substrate ENLYFQL” value is 0.0597 and the “area with substrate ENLYFQM” value was 0.0525. The “area with substrate ENLYFQN” value was found to be 0.0481, the “area with substrate ENLYFQP” value came out at 0.0597, the “area with substrate ENLYFQR” value was found to be 0.0445 and the “area with substrate ENLYFQS” value stood at 0.0565. Further, the “area with substrate ENLYFQT” value was 0.0556.
For MGESLFKGPRDYNPISSSICHLTNESDGHTTSLYGHGFGPFIITNKHLFRRNNGTLVVQSLHGVFKVKDTTTLQQHLVDGRDMIIIRMPKDFPPFPQKLKFREPQREERICLVTTNFQTKSMSSMVSDTSCTFPSGDGIFWKHWIQTKDGQCGSPLVSTRDGFIVGIHSASNFTNTNNYFTSVPKNFMELLTNQEAQQWVSGWRLNADSVLWGGHKVFMVKPEEPFQPVKEATQL [I36H], the “area with substrate ENLYFQA” value was 0.0506, the “area with substrate ENLYFQC” value worked out at 0.0532, the “area with substrate ENLYFQD” value worked out at 0.0495 and the “area with substrate ENLYFQF” value is 0.0402. Moreover, the “area with substrate ENLYFQG” value came out at 0.0277, the “area with substrate ENLYFQH” value is 0.042, the “area with substrate ENLYFQI” value was 0.0569 and the “area with substrate ENLYFQK” value was found to be 0.0447. Moreover, the “area with substrate ENLYFQL” value stood at 0.0396, the “area with substrate ENLYFQM” value turned out to be 0.0421, the “area with substrate ENLYFQN” value was 0.0284 and the “area with substrate ENLYFQP” value is 0.0498. The “area with substrate ENLYFQR” value came out at 0.0463, the “area with substrate ENLYFQS” value is 0.0465 and the “area with substrate ENLYFQY” value turned out to be 0.051.
In the case of MGESLFKGPRDYNPISSSICHLTNESDGHTTSLYGIGFEPFIITNKHLFRRNNGTLVVQSLHGVFKVKDTTTLQQHLVDGRDMIIIRMPKDFPPFPQKLKFREPQREERICLVTTNFQTKSMSSMVSDTSCTFPSGDGIFWKHWIQTKDGQCGSPLVSTRDGFIVGIHSASNFTNTNNYFTSVPKNFMELLTNQEAQQWVSGWRLNADSVLWGGHKVFMVKPEEPFQPVKEATQL [G39E], the “area with substrate ENLYFQA” value amounted to 0.0519, the “area with substrate ENLYFQC” value was found to be 0.0499, the “area with substrate ENLYFQD” value was 0.0435 and the “area with substrate ENLYFQG” value came to 0.057. The “area with substrate ENLYFQI” value was determined as 0.0438, the “area with substrate ENLYFQK” value was 0.0445, the “area with substrate ENLYFQL” value amounted to 0.0209 and the “area with substrate ENLYFQM” value is 0.0442. In addition, the “area with substrate ENLYFQN” value amounted to 0.0348, the “area with substrate ENLYFQP” value worked out at 0.0392, the “area with substrate ENLYFQS” value came out at 0.0456 and the “area with substrate ENLYFQT” value turned out to be 0.0238. In addition, the “area with substrate ENLYFQW” value was 0.0497 and the “area with substrate ENLYFQY” value came out at 0.0346.
